Results reported in article PMC9911399, “Two distinct binding modes provide the RNA-binding protein RbFox with extraordinary sequence specificity”.
Substitutions are numbered along the chain they refer to; changes in the protein carry UniProt numbers. The list shows a part of the results.

T1: RBFOX1 RRM (Homo sapiens, UniProt Q9NWB1 109-208)
T1 sequence: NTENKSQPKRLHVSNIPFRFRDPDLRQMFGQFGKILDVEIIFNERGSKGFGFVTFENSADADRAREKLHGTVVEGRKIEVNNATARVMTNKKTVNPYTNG

B1: GAGAAGU (DNA:RNA)
RNA: GGGAGACCGGAAUUCAGAUUGUCCGAGAAGUUUAAAUCCCGUCGUAGCCACCA
DNA 1: CAATCTGAATTCCGGTCTCCC
DNA 2: TGGTGGCTACGACGGGATT
B2: ACGGCGA (DNA:RNA)
RNA: B1 RNA with G25A, A26C, A28G, A29C, U31A
DNA 1: CAATCTGAATTCCGGTCTCCC
DNA 2: TGGTGGCTACGACGGGATT
B3: GAUUAAG (DNA:RNA)
RNA: B1 RNA with G27U, A28U, G30A, U31G
DNA 1: CAATCTGAATTCCGGTCTCCC
DNA 2: TGGTGGCTACGACGGGATT
B4: UUUUUAA (DNA:RNA)
RNA: GGGAGACCGGAAUUCAGAUUGUCCUUUUUAAUUAAAUCCCGUCGUAGCCACCA
DNA 1: CAATCTGAATTCCGGTCTCCC
DNA 2: TGGTGGCTACGACGGGATT
B5: AGUAUCU (DNA:RNA)
RNA: B1 RNA with G25A, A26G, G27U, A29U, G30C
DNA 1: CAATCTGAATTCCGGTCTCCC
DNA 2: TGGTGGCTACGACGGGATT
B6: GCACUGC (DNA:RNA)
RNA: B1 RNA with A26C, G27A, A28C, A29U, U31C
DNA 1: CAATCTGAATTCCGGTCTCCC
DNA 2: TGGTGGCTACGACGGGATT
B7: CUGUUUC (DNA:RNA)
RNA: B4 RNA with U25C, U27G, A30U, A31C
DNA 1: CAATCTGAATTCCGGTCTCCC
DNA 2: TGGTGGCTACGACGGGATT
B8: UAAUCCU (DNA:RNA)
RNA: B1 RNA with G25U, G27A, A28U, A29C, G30C
DNA 1: CAATCTGAATTCCGGTCTCCC
DNA 2: TGGTGGCTACGACGGGATT
B9: AGCUUGA (DNA:RNA)
RNA: B4 RNA with U25A, U26G, U27C, A30G
DNA 1: CAATCTGAATTCCGGTCTCCC
DNA 2: TGGTGGCTACGACGGGATT
B10: CGGUGGU (DNA:RNA)
RNA: B1 RNA with G25C, A26G, A28U, A29G
DNA 1: CAATCTGAATTCCGGTCTCCC
DNA 2: TGGTGGCTACGACGGGATT
B11: UGUUCCC (DNA:RNA)
RNA: B4 RNA with U26G, U29C, A30C, A31C
DNA 1: CAATCTGAATTCCGGTCTCCC
DNA 2: TGGTGGCTACGACGGGATT
B12: GUGAUUU (DNA:RNA)
RNA: B1 RNA with A26U, A29U, G30U
DNA 1: CAATCTGAATTCCGGTCTCCC
DNA 2: TGGTGGCTACGACGGGATT
B13: CCACCAG (DNA:RNA)
RNA: B4 RNA with U25C, U26C, U27A, U28C, U29C, A31G
DNA 1: CAATCTGAATTCCGGTCTCCC
DNA 2: TGGTGGCTACGACGGGATT
B14: AAGCCUG (DNA:RNA)
RNA: B1 RNA with G25A, A28C, A29C, G30U, U31G
DNA 1: CAATCTGAATTCCGGTCTCCC
DNA 2: TGGTGGCTACGACGGGATT
B15: UUGGUCG (DNA:RNA)
RNA: B4 RNA with U27G, U28G, A30C, A31G
DNA 1: CAATCTGAATTCCGGTCTCCC
DNA 2: TGGTGGCTACGACGGGATT
B16: AAUUGUA (DNA:RNA)
RNA: B4 RNA with U25A, U26A, U29G, A30U
DNA 1: CAATCTGAATTCCGGTCTCCC
DNA 2: TGGTGGCTACGACGGGATT
B17: UUUGUCU (DNA:RNA)
RNA: B4 RNA with U28G, A30C, A31U
DNA 1: CAATCTGAATTCCGGTCTCCC
DNA 2: TGGTGGCTACGACGGGATT
B18: CCAUUAU (DNA:RNA)
RNA: B4 RNA with U25C, U26C, U27A, A31U
DNA 1: CAATCTGAATTCCGGTCTCCC
DNA 2: TGGTGGCTACGACGGGATT
B19: GACCCCU (DNA:RNA)
RNA: B1 RNA with G27C, A28C, A29C, G30C
DNA 1: CAATCTGAATTCCGGTCTCCC
DNA 2: TGGTGGCTACGACGGGATT
B20: CUCGCAG (DNA:RNA)
RNA: B4 RNA with U25C, U27C, U28G, U29C, A31G
DNA 1: CAATCTGAATTCCGGTCTCCC
DNA 2: TGGTGGCTACGACGGGATT
B21: AGGACCA (DNA:RNA)
RNA: B1 RNA with G25A, A26G, A29C, G30C, U31A
DNA 1: CAATCTGAATTCCGGTCTCCC
DNA 2: TGGTGGCTACGACGGGATT
B22: CCAGGCC (DNA:RNA)
RNA: GGGAGACCGGAAUUCAGAUUGUCCCCAGGCCUUAAAUCCCGUCGUAGCCACCA
DNA 1: CAATCTGAATTCCGGTCTCCC
DNA 2: TGGTGGCTACGACGGGATT
B23: GCAUUGG (DNA:RNA)
RNA: B22 RNA with C25G, G28U, G29U, C30G, C31G
DNA 1: CAATCTGAATTCCGGTCTCCC
DNA 2: TGGTGGCTACGACGGGATT
B24: AGGCGGU (DNA:RNA)
RNA: B1 RNA with G25A, A26G, A28C, A29G
DNA 1: CAATCTGAATTCCGGTCTCCC
DNA 2: TGGTGGCTACGACGGGATT
B25: CCUAUCC (DNA:RNA)
RNA: B22 RNA with A27U, G28A, G29U
DNA 1: CAATCTGAATTCCGGTCTCCC
DNA 2: TGGTGGCTACGACGGGATT
B26: GUUGAGG (DNA:RNA)
RNA: B1 RNA with A26U, G27U, A28G, U31G
DNA 1: CAATCTGAATTCCGGTCTCCC
DNA 2: TGGTGGCTACGACGGGATT
B27: UUGCUUU (DNA:RNA)
RNA: B4 RNA with U27G, U28C, A30U, A31U
DNA 1: CAATCTGAATTCCGGTCTCCC
DNA 2: TGGTGGCTACGACGGGATT
B28: GAAUAGG (DNA:RNA)
RNA: B1 RNA with G27A, A28U, U31G
DNA 1: CAATCTGAATTCCGGTCTCCC
DNA 2: TGGTGGCTACGACGGGATT
B29: ACGUAAU (DNA:RNA)
RNA: B1 RNA with G25A, A26C, A28U, G30A
DNA 1: CAATCTGAATTCCGGTCTCCC
DNA 2: TGGTGGCTACGACGGGATT
B30: UCUGCUA (DNA:RNA)
RNA: B4 RNA with U26C, U28G, U29C, A30U
DNA 1: CAATCTGAATTCCGGTCTCCC
DNA 2: TGGTGGCTACGACGGGATT
B31: GCGGUGG (DNA:RNA)
RNA: B1 RNA with A26C, A28G, A29U, U31G
DNA 1: CAATCTGAATTCCGGTCTCCC
DNA 2: TGGTGGCTACGACGGGATT

The binders below were run against T1, RBFOX1 RRM (assay: EMSA; HiTS-Eq, 1 nM pool, 10 min; buffer printed only for the single-RNA assays: 10 mM Tris pH 7.5, 150 mM NaCl, 3.4 mM EDTA, 0.001% NP-40, 30 C). Details: tags: His6 N-terminal (pET28a); label: 5' 32P.
How it was run: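 Relative association constants, normalised to the cognate motif, were derived by comparing read counts of each RNA species with those of the control reaction. The RNA sequenced was the free fraction, separated by 8% native PAGE after a 10 min equilibration in 50 µL of 1 nM 5′-radiolabelled RNA (7 randomized nucleotides) with increasing concentrations of purified wild-type or mutant RbFox RRM.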

Row | Binder | binding signal
1 | B1 | 0.0151 KA relative to UGCAUGU
2 | B2 | 0.0123 KA relative to UGCAUGU
3 | B3 | 0.00955 KA relative to UGCAUGU
4 | B4 | 0.00784 KA relative to UGCAUGU
5 | B5 | 0.00723 KA relative to UGCAUGU
6 | B6 | 0.018 KA relative to UGCAUGU
7 | B7 | 0.0146 KA relative to UGCAUGU
8 | B8 | 0.00283 KA relative to UGCAUGU
9 | B9 | 0.0217 KA relative to UGCAUGU
10 | B10 | 0.0161 KA relative to UGCAUGU
11 | B11 | 0.0148 KA relative to UGCAUGU
12 | B12 | 0.0182 KA relative to UGCAUGU
13 | B13 | 0.00235 KA relative to UGCAUGU
14 | B14 | 0.0167 KA relative to UGCAUGU
15 | B15 | 0.0376 KA relative to UGCAUGU
16 | B16 | 0.0068 KA relative to UGCAUGU

Row | Binder | binding signal
17 | B17 | 0.0178 KA relative to UGCAUGU
18 | B18 | 0.00134 KA relative to UGCAUGU
19 | B19 | 0.0029 KA relative to UGCAUGU
20 | B20 | 0.0115 KA relative to UGCAUGU
21 | B21 | 0.0117 KA relative to UGCAUGU
22 | B22 | 0.0113 KA relative to UGCAUGU
23 | B23 | 0.0185 KA relative to UGCAUGU
24 | B24 | 0.0148 KA relative to UGCAUGU
25 | B25 | 0.00783 KA relative to UGCAUGU
26 | B26 | 0.0122 KA relative to UGCAUGU
27 | B27 | 0.0232 KA relative to UGCAUGU
28 | B28 | 0.00781 KA relative to UGCAUGU
29 | B29 | 0.00194 KA relative to UGCAUGU
30 | B30 | 0.0183 KA relative to UGCAUGU
31 | B31 | 0.0218 KA relative to UGCAUGU
